Experiment [1] has as its system rice blast fungi (Magnaporthe grisea). It counts as in vivo. The note with it: spray treatment of rice plants; control value=100{1-(n/3)}.
Experiment [2] concerns tomato late blight fungi (Phytophthora infestans). The class given is in vivo. Particulars: spray treatment of tomato plants; control value=100{1-(n/3)}.
The subject of experiment [3] is cucumber anthracnose fungi (Colletotrichum orbiculare). Put plainly: Test Example H: cucumber anthracnose, spray treatment of cucumber plants. The note with it: 250 ppm spray, 2.5 ml/pot, cucumber Sagami Hanjiro; 6 to 10 days from inoculation.

Regarding `O=c1c(Br)cn(Cc2ccccc2)c(-c2c(F)cc(F)cc2F)c1Br` [Compound 57], in experiment [1], the “Test A control value class (rice blast)” value is “H (H shows the control value of more than 50%)”. Further, the “Test F control value class (tomato late blight)” value (“Test F control value class” below) in experiment [2] was “L (L shows the control value of 50% or less)”. The “Test H control value class (cucumber anthracnose)” value (from here on “Test H control value class”) in experiment [3] was “H (H shows the control value of more than 50%)”.

As for `COc1cc(F)c(-c2c(Cl)c(=O)c(Cl)cn2Cc2ccccc2)c(F)c1` [Compound 58], the “Test A control value class (rice blast)” value in experiment [1] is reported as “H (H shows the control value of more than 50%)”. The “Test F control value class” value in experiment [2] is “H (H shows the control value of more than 50%)”. For the same compound, the “Test H control value class” value in experiment [3] is given as “H (H shows the control value of more than 50%)”.

For the compound `O=c1c(Cl)cn(Cc2ccccc2Cl)c(-c2c(F)cc(F)cc2F)c1I` [Compound 89], the “Test A control value class (rice blast)” value in experiment [1] is given as “H (H shows the control value of more than 50%)”. The “Test F control value class” value in experiment [2] is “L (L shows the control value of 50% or less)”. Also, in experiment [3], the “Test H control value class” value is “H (H shows the control value of more than 50%)”.

As for `O=c1c(Br)cn(-c2ccccc2Br)c(-c2c(F)cccc2F)c1Cl` [Compound 90], the “Test A control value class (rice blast)” value in experiment [1] is “H (H shows the control value of more than 50%)”. Further, the “Test F control value class” value in experiment [2] is given as “L (L shows the control value of 50% or less)”. Besides, the “Test H control value class” value in experiment [3] is “H (H shows the control value of more than 50%)”.

Regarding `O=c1c(Br)cn(-c2ccccc2Br)c(-c2c(F)cccc2F)c1Br` [Compound 91], in experiment [1], the “Test A control value class (rice blast)” value is listed as “H (H shows the control value of more than 50%)”. In experiment [2], the “Test F control value class” value is recorded as “L (L shows the control value of 50% or less)”. Besides, the “Test H control value class” value in experiment [3] is recorded as “H (H shows the control value of more than 50%)”.

For the compound `O=c1c(Cl)cn(-c2ccccc2Br)c(-c2c(F)cccc2F)c1Cl` [Compound 92], the “Test A control value class (rice blast)” value in experiment [1] is on record as “H (H shows the control value of more than 50%)”. For the same compound, the “Test F control value class” value in experiment [2] is given as “L (L shows the control value of 50% or less)”. In experiment [3], the “Test H control value class” value is “H (H shows the control value of more than 50%)”.

For `O=c1c(Cl)cn(-c2ccccc2Br)c(-c2c(F)cccc2F)c1Br` [Compound 93], the “Test A control value class (rice blast)” value in experiment [1] was “H (H shows the control value of more than 50%)”. In experiment [2], the “Test F control value class” value was “L (L shows the control value of 50% or less)”. For the same compound, the “Test H control value class” value in experiment [3] is reported as “H (H shows the control value of more than 50%)”.

With `O=c1c(Cl)cn(CCc2ccccc2)c(-c2c(F)cc(F)cc2F)c1Cl` [Compound 94], in experiment [1], the “Test A control value class (rice blast)” value was “L (L shows the control value of 50% or less)”. Also, the “Test F control value class” value in experiment [2] was “L (L shows the control value of 50% or less)”. In addition, in experiment [3], the “Test H control value class” value was “L (L shows the control value of 50% or less)”.

As for `O=c1c(Cl)cn(CCc2ccccc2)c(-c2c(F)cc(F)cc2F)c1Br` [Compound 95], the “Test A control value class (rice blast)” value in experiment [1] is listed as “L (L shows the control value of 50% or less)”. Moreover, the “Test F control value class” value in experiment [2] was “L (L shows the control value of 50% or less)”. The “Test H control value class” value in experiment [3] is “L (L shows the control value of 50% or less)”.

With `O=c1c(Br)cn(-c2ccc(F)cc2Cl)c(-c2c(F)cccc2F)c1Cl` [Compound 96], the “Test A control value class (rice blast)” value in experiment [1] is “H (H shows the control value of more than 50%)”. In addition, in experiment [2], the “Test F control value class” value is on record as “L (L shows the control value of 50% or less)”. In addition, the “Test H control value class” value in experiment [3] was “H (H shows the control value of more than 50%)”.

As for `O=c1c(Br)cn(-c2ccc(F)cc2Cl)c(-c2c(F)cccc2F)c1Br` [Compound 97], the “Test A control value class (rice blast)” value in experiment [1] is listed as “H (H shows the control value of more than 50%)”. Besides, in experiment [2], the “Test F control value class” value is given as “L (L shows the control value of 50% or less)”. For the same compound, the “Test H control value class” value in experiment [3] was “H (H shows the control value of more than 50%)”.

Take `O=c1c(Cl)cn(-c2ccc(F)cc2Cl)c(-c2c(F)cccc2F)c1Br` [Compound 98]: the “Test A control value class (rice blast)” value in experiment [1] is recorded as “H (H shows the control value of more than 50%)”. The “Test F control value class” value in experiment [2] is “L (L shows the control value of 50% or less)”. Besides, the “Test H control value class” value in experiment [3] is “H (H shows the control value of more than 50%)”.

`O=c1c(Cl)cn(-c2ccc(F)cc2Cl)c(-c2c(F)cccc2F)c1Cl` [Compound 99]: in experiment [1], the “Test A control value class (rice blast)” value is reported as “H (H shows the control value of more than 50%)”. In addition, in experiment [2], the “Test F control value class” value was “L (L shows the control value of 50% or less)”. For the same compound, in experiment [3], the “Test H control value class” value is reported as “H (H shows the control value of more than 50%)”.

Regarding `O=c1c(Br)cn(CCc2ccccc2)c(-c2c(F)cc(F)cc2F)c1Cl` [Compound 100], the “Test A control value class (rice blast)” value in experiment [1] was “L (L shows the control value of 50% or less)”. Moreover, the “Test F control value class” value in experiment [2] is given as “L (L shows the control value of 50% or less)”. Besides, the “Test H control value class” value in experiment [3] is “L (L shows the control value of 50% or less)”.

For the compound `O=c1c(Br)cn(CCc2ccccc2)c(-c2c(F)cc(F)cc2F)c1Br` [Compound 101], the “Test A control value class (rice blast)” value in experiment [1] was “L (L shows the control value of 50% or less)”. For the same compound, the “Test F control value class” value in experiment [2] is “L (L shows the control value of 50% or less)”. Besides, the “Test H control value class” value in experiment [3] is listed as “L (L shows the control value of 50% or less)”.

As to `COc1cc(F)c(-c2c(Cl)c(=O)c(Cl)cn2CCc2ccccc2)c(F)c1` [Compound 102], in experiment [1], the “Test A control value class (rice blast)” value is “L (L shows the control value of 50% or less)”. The “Test F control value class” value in experiment [2] is on record as “L (L shows the control value of 50% or less)”. Further, the “Test H control value class” value in experiment [3] is recorded as “L (L shows the control value of 50% or less)”.

For the compound `COc1cc(F)c(-c2c(Br)c(=O)c(Cl)cn2CCc2ccccc2)c(F)c1` [Compound 103], in experiment [1], the “Test A control value class (rice blast)” value is listed as “H (H shows the control value of more than 50%)”. For the same compound, the “Test F control value class” value in experiment [2] is reported as “L (L shows the control value of 50% or less)”. Also, the “Test H control value class” value in experiment [3] is listed as “L (L shows the control value of 50% or less)”.

`COc1cc(F)c(-c2c(Br)c(=O)c(Br)cn2CCc2ccccc2)c(F)c1` [Compound 104]: the “Test A control value class (rice blast)” value in experiment [1] is reported as “L (L shows the control value of 50% or less)”. The “Test F control value class” value in experiment [2] was “L (L shows the control value of 50% or less)”. Further, the “Test H control value class” value in experiment [3] is “L (L shows the control value of 50% or less)”.

Take `O=c1c(Br)cn(-c2cc(F)ccc2Cl)c(-c2c(F)cccc2F)c1Cl` [Compound 105]: the “Test A control value class (rice blast)” value in experiment [1] is given as “H (H shows the control value of more than 50%)”. In experiment [2], the “Test F control value class” value is listed as “L (L shows the control value of 50% or less)”. Besides, the “Test H control value class” value in experiment [3] was “H (H shows the control value of more than 50%)”.

Turning to `O=c1c(Br)cn(-c2cc(F)ccc2Cl)c(-c2c(F)cccc2F)c1Br` [Compound 106], in experiment [1], the “Test A control value class (rice blast)” value is “H (H shows the control value of more than 50%)”. Moreover, in experiment [2], the “Test F control value class” value is “L (L shows the control value of 50% or less)”. Also, the “Test H control value class” value in experiment [3] is recorded as “H (H shows the control value of more than 50%)”.
